Here are results for 120 sequences from the supplement of paper PMC10126150.

Values marked as one replicate rest on one cluster of the flow cell; about a third of the high ones do not repeat.

The data set relates to ATP. Briefly: switch fluorescence ratio, 500 uM ATP over buffer (Cy3 cluster intensity, sum of 5 cycles each) (fold (ratio)); higher = stronger signal-on switching upon ATP binding; sequences stand for … in TCGTCGGCAGCGTCAGATGTGTATAAGAGACAGTTTTTTTTTTTTTTTTTTTTTTTTT…TC. The following applies: aptamer strand: ATP DNA aptamer (quencher-CACCTGGGGGAGTATTGCGGAGGAAGG + anchor), 100 nM annealed; ATP concentration: 500 uM; one replicate. The method in brief:
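Switching-strand clusters labelled with Cy3 on a modified Illumina MiSeq flow-cell were annealed to 100 nM quencher-labelled ATP aptamer, imaged in selection buffer, and re-imaged after 15 min with 500 uM ATP at 22 °C. This was done over five cycles with NaOH stripping and re-annealing in between. The fluorescence ratio is summed target-cycle over summed buffer-cycle Cy3 intensity per cluster, averaged per switch-domain sequence, excluding clusters outside 100-1000 RFU.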
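Further: ATP exposure 15 min at 22 °C before imaging.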

As for GAAGAGGTGG, the switch fluorescence ratio turned out to be 0.977.

GAGGGGAGTC: the switch fluorescence ratio was found to be 0.989.

With TGGTCTCTGT, the switch fluorescence ratio amounted to 0.963.

In the case of CTAAGCAAAC, the switch fluorescence ratio worked out at 2.68.

On to ACATTTGCCT, for which the switch fluorescence ratio is 1.03.

Regarding CAGTATAGTC, the switch fluorescence ratio worked out at 1.01.

As to TACGTTGTTT, the switch fluorescence ratio turned out to be 1.03.

CAATAGAAAC: the switch fluorescence ratio amounted to 1.08.

For the sequence GCTATGTAAT, the switch fluorescence ratio is 1.06.

AATCATAGGT: the switch fluorescence ratio was determined as 1.

With CTCAGAAAGT, the switch fluorescence ratio was 0.999.

For the sequence TGGCTCCACG, the switch fluorescence ratio was 1.05.

As to ATGGAAATAC, the switch fluorescence ratio stood at 1.15.

Regarding ACAGTTTGTT, the switch fluorescence ratio turned out to be 1.01.

With TTCTCATAGA, the switch fluorescence ratio is 1.02.

For GGCCGCATTT, the switch fluorescence ratio stood at 1.54.

Consider GACGAAGTAT, for which the switch fluorescence ratio came out at 1.05.

Take ACTGCAGACG: the switch fluorescence ratio was 1.07.

On to TTCTTACAT, for which the switch fluorescence ratio worked out at 1.05.

In the case of ACACCGGTCA, the switch fluorescence ratio worked out at 0.991.

For TTTTTAGCAA, the switch fluorescence ratio was determined as 1.6.

TTTTTACTTC: the switch fluorescence ratio was found to be 1.04.

Take AAGATACTGT: the switch fluorescence ratio amounted to 0.999.

Take CATGAATGAA: the switch fluorescence ratio was 1.03.

With AGCTTCAATC, the switch fluorescence ratio was 1.09.

TATGTTCAGC: the switch fluorescence ratio came to 0.978.

Take GGCCGAAATT: the switch fluorescence ratio stood at 1.02.

Take CTTTTGCCAG: the switch fluorescence ratio is 1.06.

For CTTTTCACTA, the switch fluorescence ratio worked out at 0.982.

For AGTTTGTAAC, the switch fluorescence ratio was 1.03.

As for TCGCTATTCG, the switch fluorescence ratio is 1.03.

Regarding CACGTATGTC, the switch fluorescence ratio amounted to 0.973.

As to GCATCATTTT, the switch fluorescence ratio stood at 1.01.

Take AGACTGCGA: the switch fluorescence ratio is 0.982.

Turning to TAAGCGTATT, the switch fluorescence ratio came out at 1.

As for GCCCGCTGTA, the switch fluorescence ratio was found to be 1.13.

Turning to GACTCCAAA, the switch fluorescence ratio was 0.999.

Consider TTCAGTAATG, for which the switch fluorescence ratio was determined as 0.995.

ACGGCTGGGT: the switch fluorescence ratio was 0.997.

In the case of GCGTATAAA, the switch fluorescence ratio turned out to be 1.01.

As for GATATCTAGG, the switch fluorescence ratio is 1.02.

Turning to GCGCTGCATA, the switch fluorescence ratio came out at 1.14.

On to GAATCCTTGT, for which the switch fluorescence ratio is 1.04.

Regarding TCCTAATAGG, the switch fluorescence ratio came to 1.

On to TCGGGTTCGC, for which the switch fluorescence ratio stood at 1.01.

In the case of TGTTCCTTGG, the switch fluorescence ratio came to 0.962.

Take CGCAACTTTC: the switch fluorescence ratio amounted to 1.72.

Turning to ATGTTGCCTG, the switch fluorescence ratio was 1.01.

Regarding CTTGTAAGCT, the switch fluorescence ratio was 0.998.

As to TAAAGATGCC, the switch fluorescence ratio was 1.07.

Regarding ATATTGGTCC, the switch fluorescence ratio came to 0.991.

For TGTCCTGTCG, the switch fluorescence ratio amounted to 1.07.

For the sequence TCGGGTATGA, the switch fluorescence ratio stood at 1.02.

GATTACTTTT: the switch fluorescence ratio was 1.04.

As to TTTGGTGC, the switch fluorescence ratio worked out at 1.06.

With GGCAGGAGG, the switch fluorescence ratio worked out at 0.994.

Regarding TCGAGGCTGG, the switch fluorescence ratio turned out to be 0.961.

For the sequence TAACGTGGCA, the switch fluorescence ratio amounted to 0.968.

Consider GCCACAGTAT, for which the switch fluorescence ratio turned out to be 1.03.

Take GCCCTAGCCC: the switch fluorescence ratio worked out at 0.964.

As for GAGCTTCGT, the switch fluorescence ratio was found to be 1.01.

Take GCCAACTCCT: the switch fluorescence ratio was 1.1.

On to AACTTATGCG, for which the switch fluorescence ratio amounted to 0.998.

As to AATGTCCCGG, the switch fluorescence ratio was determined as 0.978.

CGCTTGTTG: the switch fluorescence ratio was determined as 1.03.

As for ATTTAGATCC, the switch fluorescence ratio amounted to 0.969.

Take AGTGTGGCA: the switch fluorescence ratio worked out at 1.01.

As to AAATCCAGAC, the switch fluorescence ratio is 1.05.

For CAGCCAAAGG, the switch fluorescence ratio turned out to be 1.01.

AGATATGTCG: the switch fluorescence ratio was found to be 1.07.

On to AGACGTGCGC, for which the switch fluorescence ratio was determined as 1.05.

Regarding GGTAACATAA, the switch fluorescence ratio was determined as 1.01.

As to CAATAGCTGA, the switch fluorescence ratio was 1.01.

Regarding TGGAATAGGC, the switch fluorescence ratio amounted to 1.03.

AGGCCCATTG: the switch fluorescence ratio was found to be 0.993.

With TGAGAGAATC, the switch fluorescence ratio came to 1.03.

For the sequence GGTAACCGTC, the switch fluorescence ratio is 1.03.

For the sequence GTTATACCAT, the switch fluorescence ratio is 0.972.

For the sequence TCCGCACTGT, the switch fluorescence ratio is 4.58.

On to ATAGTGGCCC, for which the switch fluorescence ratio was determined as 1.03.

For the sequence ACTGTGAGGG, the switch fluorescence ratio was found to be 0.969.

Take ACGCTTATTG: the switch fluorescence ratio turned out to be 1.06.

As for AAAGCGTATT, the switch fluorescence ratio turned out to be 0.96.

Take GGAATGTGAG: the switch fluorescence ratio is 0.994.

With CCAGCAGGGG, the switch fluorescence ratio was found to be 2.38.

Take CTCGAGGTAT: the switch fluorescence ratio turned out to be 1.01.

Regarding TTCCCCCTTA, the switch fluorescence ratio is 1.09.

For TCATCTGGTT, the switch fluorescence ratio is 0.959.

AATGGAGGCA: the switch fluorescence ratio was 1.06.

In the case of TTCGGGAGTT, the switch fluorescence ratio is 1.05.

For ACCAGGTAA, the switch fluorescence ratio came to 1.01.

On to GAGAAATACA, for which the switch fluorescence ratio amounted to 1.07.

As to CGCATTAGGT, the switch fluorescence ratio came to 1.2.

For the sequence GCTGACCCGC, the switch fluorescence ratio turned out to be 2.95.

With GGTTGTTAGA, the switch fluorescence ratio was 0.996.

Turning to GTAAAATTTT, the switch fluorescence ratio is 0.992.

For the sequence TAAGCCGGTC, the switch fluorescence ratio was 1.08.

Consider TATGGTCGTA, for which the switch fluorescence ratio turned out to be 1.06.

As for ATTGGTTCCT, the switch fluorescence ratio was 1.

Consider AGCAGGAACG, for which the switch fluorescence ratio is 1.02.

Take CACCTGATAT: the switch fluorescence ratio was found to be 1.03.

In the case of TTGGAGTAG, the switch fluorescence ratio was found to be 1.24.

For the sequence GTGGAATAGT, the switch fluorescence ratio came out at 0.98.

Consider TCATTGCTCT, for which the switch fluorescence ratio worked out at 0.949.

Regarding TCGAGCACCG, the switch fluorescence ratio came out at 1.02.

GAAGGTGGGT: the switch fluorescence ratio worked out at 0.981.

Turning to GGGAAAACAG, the switch fluorescence ratio turned out to be 1.03.

Regarding AAACAGTTCT, the switch fluorescence ratio is 1.

As for TATCCTTGCC, the switch fluorescence ratio was determined as 1.22.

Take AGTGTTAGTA: the switch fluorescence ratio is 1.

As for TAGTTTTTC, the switch fluorescence ratio was 0.981.

With CAACCCAACA, the switch fluorescence ratio turned out to be 1.05.

With GACGATACTT, the switch fluorescence ratio was 1.44.

ACCGATCCTG: the switch fluorescence ratio is 1.08.

Consider TTGACGTCTA, for which the switch fluorescence ratio was 1.25.

For TGCAGTAGTA, the switch fluorescence ratio is 0.955.

As for GTTCTTATGT, the switch fluorescence ratio was 1.01.

As for TAGGATCATA, the switch fluorescence ratio was 1.03.

Turning to TCGGTGGTT, the switch fluorescence ratio worked out at 1.01.

CGGGGTTAT: the switch fluorescence ratio came to 1.04.
